Assay results as given in the supplement of paper PMC9446081.
Screen size: about 39,000 compounds; about 220 (0.56%) showed activity. The list shows a part of the results.

Tested on: Escherichia coli K-12 BW25113
Assay: relative growth (OD600 normalised to plate interquartile mean) (fraction); higher = less growth inhibition, active = 0.2 or less
Conditions: 50 µM; LB; incubation time: overnight (16-24 h)
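Note: static incubation at 37 °C against the wild-type strain, values averaged over two biological replicates.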

| SMILES | relative growth |
| --- | --- |
| CN1C(=O)c2cc(NC(=O)c3ccc(F)c(F)c3)ccc2OC[C@H]2O[C@@H](CC(=O)N3CCOCC3)CC[C@@H]21 | inactive: 0.988 |
| NCC[C@H]1CC[C@H](NC(=O)C2CCCCC2)[C@H](CO)O1 | inactive: 1.01 |
| CC1(CO)COC1 | inactive: 0.994 |
| Cc1noc(C)c1S(=O)(=O)Nc1cccc2c1O[C@H](CN(C)Cc1ccc(C(=O)O)cc1)[C@H](C)CN([C@H](C)CO)C2=O | inactive: 1 |
| C[C@H]1CN([C@@H](C)CO)C(=O)CCCn2cc(nn2)CO[C@@H]1CN(C)S(=O)(=O)c1ccc2ccccc2c1 | inactive: 0.998 |
| CO/N=C(\C(=O)N[C@@H]1C(=O)N2C(C(=O)O)=C(CSc3nnnn3C)CS[C@H]12)c1csc(N)n1 | active: 0.0456 |
| COCC#Cc1cnc2c(c1)C(=O)N([C@@H](C)CO)C[C@H](C)[C@H](CN(C)C(=O)CCN1CCCCC1)O2 | inactive: 1.01 |
| C[C@H]1CN([C@@H](C)CO)C(=O)c2cc(NS(=O)(=O)c3ccc(F)cc3)ccc2O[C@H]1CN(C)S(=O)(=O)c1ccccc1 | inactive: 0.995 |
| C[C@@H]1CCCCO[C@H](CN(C)S(=O)(=O)c2ccc(Cl)cc2)[C@H](C)CN([C@H](C)CO)C(=O)c2cc(NC(=O)CCC(F)(F)F)ccc2O1 | inactive: 0.973 |
| COc1cccc(S(=O)(=O)N[C@H]2CC[C@@H](CCn3cc(-c4ccccc4OC)nn3)O[C@H]2CO)c1 | inactive: 1 |
| CO[C@H]1O[C@H](CO)[C@@H](OC(=O)Nc2ccc(Oc3ccccc3)cc2)[C@H](OC(=O)Nc2ccccc2)[C@H]1OC(=O)Nc1ccccc1 | inactive: 1.03 |
| C[C@@H]1CCCCO[C@H](CN(C)Cc2ccc(Cl)c(Cl)c2)[C@@H](C)CN([C@@H](C)CO)C(=O)c2cc(N(C)C)ccc2O1 | inactive: 0.984 |
| Cc1noc(C)c1NC(=O)Nc1ccc2c(c1)C(=O)N([C@@H](C)CO)C[C@@H](C)[C@@H](CN(C)C(=O)NC1CCCCC1)OCCCC[C@@H](C)O2 | inactive: 0.985 |
| COc1ccc(S(=O)(=O)Nc2ccc3c(c2)C(=O)N([C@@H](C)CO)C[C@H](C)[C@H](CN(C)S(=O)(=O)c2ccccc2)O3)cc1 | inactive: 1.04 |
| C[C@H]1CN([C@@H](C)CO)C(=O)c2c(c3ccccc3n2C)-c2ccccc2CO[C@H]1CN(C)C(=O)CCC(F)(F)F | inactive: 1.02 |
| NS(=O)(=O)c1cc2c(cc1Cl)N=C(CSCc1ccccc1)NS2(=O)=O | inactive: 1.03 |
| COc1ccc(S(=O)(=O)Nc2ccc3c(c2)CC(=O)N([C@@H](C)CO)C[C@@H](C)[C@H](CN(C)S(=O)(=O)c2cccs2)O3)cc1 | inactive: 1.02 |
| COc1ccc(NC(=O)N(C)C[C@@H]2OCCCC[C@@H](C)Oc3ccc(NC(=O)Cc4ccccc4)cc3C(=O)N([C@H](C)CO)C[C@H]2C)cc1 | inactive: 0.989 |
| C[C@@H]1CCCCO[C@@H](CN(C)Cc2ccc3c(c2)OCO3)[C@H](C)CN([C@@H](C)CO)C(=O)c2cc(NC(=O)C3CCCCC3)ccc2O1 | inactive: 1.01 |
| C[C@@H]1c2ncc(CN3CCN(C)CC3)n2CCN1S(C)(=O)=O | inactive: 0.986 |

| SMILES | relative growth |
| --- | --- |
| Cc1ccc(-c2ccc3c(c2)O[C@H](CN(C)C(=O)CN(C)C)[C@@H](C)CN([C@H](C)CO)S3(=O)=O)cc1 | inactive: 1 |
| C[C@H](CO)N1C[C@H](C)[C@@H](CN(C)S(=O)(=O)c2ccc(F)cc2)Oc2c(NC(=O)c3ccncc3)cccc2C1=O | inactive: 1.01 |
| C[C@H](CO)N1C[C@H](C)[C@H](CN(C)C(=O)Nc2ccc3c(c2)OCO3)OCCCC[C@H](C)Oc2ccc(NC(=O)NC3CCCCC3)cc2C1=O | inactive: 0.999 |
| CCc1nc2ccc(C(=O)NCc3ccccc3OC)cn2c1N(CC)Cc1cccc(Br)c1 | inactive: 1.01 |
| C[C@@H]1CCCCO[C@@H](CN(C)S(C)(=O)=O)[C@@H](C)CN([C@H](C)CO)C(=O)c2cc(NC(=O)Nc3cccc4ccccc34)ccc2O1 | inactive: 1.01 |
| CC(C)NC(=O)Nc1ccc2c(c1)C(=O)N([C@@H](C)CO)C[C@@H](C)[C@H](CN(C)C(=O)Nc1ccccc1)OCCCC[C@@H](C)O2 | inactive: 1.02 |
| C[C@@H]1CCCCO[C@@H](CN(C)S(=O)(=O)c2ccc(F)cc2)[C@@H](C)CN([C@H](C)CO)C(=O)c2cc(NC(=O)Nc3ccc(F)cc3)ccc2O1 | inactive: 1 |
| Cc1noc(C)c1NC(=O)Nc1cccc2c1O[C@H](CN(C)Cc1ccc(-c3ccccc3)cc1)[C@@H](C)CN([C@H](C)CO)C2=O | inactive: 1 |
| COc1ccc(NC(=O)N(C)C[C@H]2Oc3ccc(NC(=O)Nc4ccc(C(F)(F)F)cc4)cc3CC(=O)N([C@H](C)CO)C[C@H]2C)cc1 | inactive: 0.991 |
| COc1ccc(NC(=O)Nc2ccc3c(c2)CC(=O)N([C@@H](C)CO)C[C@@H](C)[C@H](CN(C)Cc2ccc(Oc4ccccc4)cc2)O3)cc1 | inactive: 0.93 |
| C[C@H]1CN([C@@H](C)CO)S(=O)(=O)c2ccc(C#Cc3ccc(F)cc3)cc2O[C@@H]1CN(C)S(=O)(=O)c1ccc(F)cc1 | inactive: 1.04 |
| C[C@@H]1CCCCO[C@H](CN(C)C(=O)Nc2ccc3c(c2)OCO3)[C@@H](C)CN([C@@H](C)CO)C(=O)c2cc(NS(=O)(=O)c3ccccc3)ccc2O1 | inactive: 1.01 |
| C[C@@H]1CN([C@@H](C)CO)C(=O)Cc2cc(NC(=O)CCCN(C)C)ccc2O[C@@H]1CN(C)S(=O)(=O)c1cccs1 | inactive: 0.982 |
| C[C@H](CO)N1C[C@H](C)[C@H](CN(C)S(=O)(=O)c2ccccc2)Oc2c(NC(=O)Nc3cccc4ccccc34)cccc2C1=O | inactive: 1 |
| C[C@@H](NC(=O)C[C@@H]1CC[C@@H](NC(=O)CN2CCOCC2)[C@H](CO)O1)c1ccccc1 | inactive: 0.915 |
| C[C@@H]1CCCCO[C@H](CN(C)C(=O)Nc2cccc3ccccc23)[C@@H](C)CN([C@H](C)CO)C(=O)c2cc(NC(=O)C3CCCCC3)ccc2O1 | inactive: 0.993 |
| CC(C)NC(=O)Nc1ccc2c(c1)C(=O)N([C@H](C)CO)C[C@H](C)[C@@H](CN(C)C(=O)Nc1ccc(F)cc1)OCCCC[C@@H](C)O2 | inactive: 0.995 |
| C[C@H]1CN([C@@H](C)CO)C(=O)c2cc(NC(=O)Cn3cnnn3)ccc2O[C@H]1CN(C)CC1CC1 | inactive: 1.04 |
| COc1cccc(S(=O)(=O)N(C)C[C@H]2Oc3cc(C4=CCCC4)ccc3S(=O)(=O)N([C@H](C)CO)C[C@H]2C)c1 | inactive: 1.02 |
| NS(=O)(=O)c1cc(-c2nn[nH]n2)c(NCc2cccs2)cc1Cl | inactive: 0.965 |

| SMILES | relative growth |
| --- | --- |
| C[C@H](CO)N1C[C@H](C)[C@H](CN(C)Cc2ccc(C(F)(F)F)cc2)OCCCC[C@H](C)Oc2ccc(NS(=O)(=O)c3ccc(Cl)cc3)cc2C1=O | inactive: 1.05 |
| CC1CCC2C(C)(CO)C(O)CCC2(C)C12CCC(CO)(CCO)O2 (stereo not drawn) | inactive: 0.981 |
| C[C@@H]1CN([C@@H](C)CO)C(=O)Cc2cc(NC(=O)C3CC3)ccc2O[C@H]1CN(C)S(=O)(=O)c1cn(C)cn1 | inactive: 1 |
| O=C(C[C@@H]1C[C@@H]2c3cc(NC(=O)Nc4ccc(C(F)(F)F)cc4)ccc3O[C@@H]2[C@H](CO)O1)NC1CCCCC1 | inactive: 0.959 |
| Cc1noc(C)c1S(=O)(=O)N(C)C[C@@H]1Oc2c(NS(=O)(=O)c3cn(C)cn3)cccc2C(=O)N([C@@H](C)CO)C[C@H]1C | inactive: 0.99 |
| CN1C(=O)c2cc(NC(=O)c3ccc(C(F)(F)F)cc3)ccc2OC[C@@H]2O[C@H](CC(=O)NC3Cc4ccccc4C3)CC[C@@H]21 | inactive: 1.01 |
| CNC(=O)C[C@@H]1CC[C@@H]2[C@H](COC[C@@H](O)CN2C(=O)Nc2ccc3c(c2)OCO3)O1 | inactive: 0.995 |
| C[C@@H]1CN([C@@H](C)CO)C(=O)c2cc(NS(C)(=O)=O)ccc2O[C@@H](C)CCCCO[C@@H]1CN(C)S(=O)(=O)c1cn(C)cn1 | inactive: 1 |
| Cc1noc(C)c1NC(=O)Nc1ccc2c(c1)C(=O)N([C@H](C)CO)C[C@@H](C)[C@@H](CN(C)S(=O)(=O)c1ccccc1)OCCCC[C@@H](C)O2 | inactive: 1.01 |
| C[C@H]1CN([C@@H](C)CO)S(=O)(=O)c2ccc(C#Cc3cccnc3)cc2O[C@@H]1CN(C)C(=O)Nc1ccc2c(c1)OCO2 | inactive: 1.01 |
| COc1ccc(NC(=O)N(C)C[C@H]2Oc3ccc(NC(=O)CCN4CCOCC4)cc3CC(=O)N([C@@H](C)CO)C[C@@H]2C)cc1 | inactive: 0.952 |
| Cc1noc(C)c1NC(=O)Nc1ccc2c(c1)C(=O)N([C@H](C)CO)C[C@H](C)[C@H](CN(C)Cc1ccncc1)OCCCC[C@H](C)O2 | inactive: 1.01 |
| COc1ccccc1CNC(=O)C[C@H]1CC[C@H]2[C@@H](COC[C@H](O)CN2C(=O)Nc2ccc(F)cc2)O1 | inactive: 0.988 |
| O=C(C[C@H]1CC[C@@H]2[C@H](COC[C@H](O)CN2S(=O)(=O)c2cccc(Cl)c2)O1)NC1Cc2ccccc2C1 | inactive: 0.986 |
| COc1ccccc1C#Cc1cnc2c(c1)C(=O)N([C@H](C)CO)C[C@@H](C)[C@@H](CN(C)C(=O)CC1CC1)O2 | inactive: 1.01 |
| C[C@@H]1CN([C@@H](C)CO)C(=O)Cc2cc(NC(=O)CCCN(C)C)ccc2O[C@H]1CN(C)Cc1ccc(Oc2ccccc2)cc1 | inactive: 0.784 |
| C[C@H](CO)N1C[C@H](C)[C@@H](CN(C)S(C)(=O)=O)Oc2ccc(NC(=O)Cn3cnnn3)cc2CC1=O | inactive: 0.934 |
| Cc1noc(C)c1NC(=O)N(C)C[C@H]1Oc2c(NC(=O)Cn3cnnn3)cccc2C(=O)N([C@H](C)CO)C[C@@H]1C | inactive: 0.966 |
